In PubChem BioAssay AID1508624 (National Center for Advancing Translational Sciences (NCATS), 2021):
About 120 (0.25%) of roughly 48,000 compounds were called active. Another 4% or so got no clear call; they are omitted. The call rests on the fitted dose curve; in most records, active means well fitted activation curve with a large enough effect; inconclusive means small, poorly fitted or top-dose-only effect, or another doubt; inactive means no such curve, though single readings can be large or run the other way. The list shows a part of the results.

Assay: Primary qHTS for Identification of Small Molecule Activators of Huntingtin-Antisense Promoter Activity; further: nearly all actives have a fitted effect of over 55% in size
Conditions: HEK293 HTT-AS promoter firefly luciferase reporter, 24 h; series mostly up to 57.5 µM; activity change, positive = activation: at the top concentration
How it was run: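 HEK293 luciferase promoter-reporter cells (2,500/well) plated 24 h, then compounds added at up to 57.5 uM final for 24 h at 37 °C. Firefly luminescence by Dual-Glo, normalized to vehicle (0%) and zero RLU (-100%).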

Activity change, positive = activation, inactive:
CC(C)c1ccc(Nc2cc(C(=O)NCc3cccs3)c3ccccc3n2)cc1 -13.8%, CCOC(=O)c1nnn(C(CC)C(=O)Nc2c(C)cccc2C)c1C(=O)OCC (centres undefined) -9.16%, CCN(CC)C(=O)CSc1nnc2[nH]c(=O)cc(C)n12 9.32%, Cc1ccc(NC(=O)N2CCN(c3nnc(C)c4c(C)n(-c5ccccc5)nc34)CC2)c(Cl)c1 3.89%, CCNc1nc(Oc2ccc(OCC(=O)OC)nn2)nc(N2CCOCC2)n1 -3.17%, CCOc1ccc(-c2cccc(NS(=O)(=O)c3ccc(Cl)s3)c2)nn1 -9.71%, Cc1ccc2c(c1)c1c(c(=O)n(-c3cccc(Cl)c3)c(=O)n1C)n2C -10.9%, COc1cc(OC)c(NC(=O)c2cnc(N3CCCC3)nc2C)cc1Cl 0.826%, CCSc1ncc(Cl)c(C(=O)Nc2sc(C(C)=O)c(C)c2C(=O)OC)n1 2.3%, O=C(CCc1ccc(O)cc1)c1c(O)cc(O)cc1O[C@@H]1O[C@H](CO)[C@H](O)[C@H](O)[C@H]1O -11.9%, C[C@@H](NCc1cc2ccccc2[nH]1)c1cccc2ccccc12 -7.67%, COc1ccc(CNC(=O)c2ccc(Sc3ccc(Cl)cc3)c(NC(C)=O)c2)c(OC)c1 -35.5%, CCOC(=O)c1c(NC(=O)c2cc3nc(-c4ccc(OC)cc4)cc(C(F)(F)F)n3n2)sc(C)c1C -1.97%, CCc1cccc(NC(=O)c2c(C)oc3ncnc(N4CCCCC4)c23)c1 -20.2%, O=C1CN(C(=O)COc2ccc(Cl)cc2Cl)C(c2ccc(F)cc2)c2cc(F)ccc2N1 (centres undefined) -35.5%, NCCC(O)(P(=O)(O)O)P(=O)(O)O 1.17%, COc1ccc(C(=O)c2oc3ccccc3c2NC(=O)c2nc(SC)ncc2Cl)cc1Cl 3.64%, CC(C)CCNC(=O)N1CCN(S(=O)(=O)c2ccc3c(ccn3C)c2)CC1 -16%, CCOC(=O)c1c(S(=O)(=O)N2CCCC(C(=O)Nc3cc(C)ccc3OC)C2)c(C)n(C)c1C (centres undefined) 0%, CCOc1ccc(CCNC(=O)CCc2cn(Cc3ccc(C)cc3)c3ccccc23)cc1 -23.6%, CCCCNC(=O)CCn1c(=O)c2ccccc2n(Cc2cc(C)ccc2C)c1=O -5.08%, COc1cccc(C2=NN(C(C)=O)C(c3cn(-c4ccccc4)nc3-c3cccs3)C2)c1 (centres undefined) -16.4%, CC1CCN(S(=O)(=O)c2ccc3c(c2)N(CC(=O)N2CCN(c4ccc(Cl)cc4)CC2)C(=O)CO3)CC1 -24.6%, CC(C[N+](C)(C)C)OC(N)=O (centres undefined), Cc1ccc(C)c(N2CCN(C(=O)c3cc(S(=O)(=O)N4CCCCC4)cn3C)CC2)c1 -34.4%, COc1ccc2[nH]cc(CCNC(=O)Nc3ccc(F)cc3)c2c1 -16.5%, CCCC(=O)Nc1nnc(SCc2cc(=O)c3cc(C)ccc3[nH]2)s1 -29.2%, O=C(c1ccc(CSc2nc3ccncc3n2Cc2ccccc2F)cc1)N1CCCCCC1 -13.2%, CC(C)S(=O)(=O)c1oc(-c2ccc(F)cc2)nc1S(=O)(=O)c1ccc(F)cc1 -94.8%, Cc1cccc(OCC(=O)N(Cc2cccc(Cl)c2)Cc2ccco2)c1C -26.7%, COc1ccc2cc(-c3cn4c(n3)sc3cc(F)ccc34)c(=O)oc2c1 6.19%, Cc1ccc(S(=O)(=O)c2nc(-c3ccccc3)oc2N2CCCCCC2)cc1 -24%, COc1ccc(/C=C/c2onc(C)c2S(=O)(=O)N2CCC(C(=O)N3CCC(C)CC3)CC2)cc1 -14.5%, Cc1ccccc1CSc1nc(-c2ccccc2)nc2c1Cc1c(CO)cnc(C)c1O2 -6.85%, COc1cccc(C(=O)NCC(c2ccc(N(C)C)cc2)N2CCOCC2)c1OC (centres undefined) 7.6%, Cn1c(SCC(=O)Nc2ccc(F)cc2)nc2c([nH]c3ccccc32)c1=O -7.1%, CN(C)C(=O)c1ccc2c(c1)N(CC(=O)NCc1ccc(F)cc1)C(=O)C1CCCCN21 (centres undefined) -4.4%, CCN(C(=O)c1cc(S(=O)(=O)N2CCOCC2)cn1C)c1ccc(OC)cc1 -6.15%, Cc1ccc(NC(=O)C(Cc2ccccc2)NS(=O)(=O)c2ccc3c(c2)c(=O)n(C)c(=O)n3C)cc1 (centres undefined) -11%, Cc1ccc(CN2C(=O)c3ccccc3S(=O)(=O)c3ccc(C(=O)OCC4CCCO4)cc32)cc1 (centres undefined) -18.2%, Cn1cc(C(=O)O)c(=O)c2cc(S(=O)(=O)N3CCCCC3)ccc21 -6.38%, CCCC(=O)Oc1c(Sc2ccc(Cl)cc2)c(C)nn1-c1ccccc1 -29.9%, Cc1cccn2c(=O)c3cc(C(=O)NCCc4ccc(S(N)(=O)=O)cc4)n(C)c3nc12 -24.4%, COc1ccc(OC)c(C2C(C(N)=O)=C(C)Nc3nc(-c4cccc(Cl)c4)nn32)c1 (centres undefined) -9.69%, CC(C)(C)c1ccc(OCC(=O)N(Cc2ccco2)Cc2ccccc2F)cc1 -31.2%, COc1cc(OC)cc(-c2nnc(SCC(=O)N3CCC(C)CC3)o2)c1 -15.2%, COc1ccc(CCNC(=O)CCn2c(=O)c3ccccc3n(CC(=O)Nc3cccc(C)c3)c2=O)cc1OC -8.28%, CC(=O)c1ccc(NC(=O)Cn2c(-n3nc(C)cc3C)nc(C)cc2=O)cc1 -12.7%, Cc1ccc2c(c1)cc1c(=O)n(CC(=O)NCc3ccco3)nc(C)n12 -7.56%, Cc1cc(C(C#N)c2ccc(Cl)cc2)c(Cl)cc1NC(=O)c1cc(I)cc(I)c1O (centres undefined) -93.2%, O=C(Cn1ncc2c3ccccc3n(Cc3ccc(Cl)cc3)c2c1=O)NCCCc1ccccc1 3.15%, COc1ccc(Nc2oc(-c3ccc(COc4ccc(OC)cc4)o3)nc2C#N)cc1 -33.5%, CC(C)c1ccc(Nc2cc(C(=O)NCCc3ccccc3)c3ccccc3n2)cc1 -17.9%, CCC(C)NC(=O)C1CCN(C(=O)c2cc3sccc3n2Cc2ccc(Cl)cc2)CC1 (centres undefined) -53.9%, CCc1ccccc1N1CC(c2nc3ccccc3n2CC(C)C)CC1=O (centres undefined) -20%, Cc1ccc(C)c(S(=O)(=O)c2nnn3c2nc(N2CCCC2)c2sccc23)c1 -19.7%, CCCCN(CC)CCCn1cnc2c([nH]c3ccc(Cl)cc32)c1=O -11.9%, CCC(=O)Nc1ccccc1-c1nc2ccccc2n(C(CC)C(=O)Nc2cccc(C(C)=O)c2)c1=O (centres undefined) -15.7%, CC(C)(C)C1CCc2nc(NC(=O)COc3ccc(F)cc3)sc2C1 (centres undefined) -35.1%, CC(=O)Nc1ccc(-n2cc3c(c2-c2ccc(C)cc2)c(=O)n(C)c(=O)n3C)cc1 -5.3%, Cc1oc(-c2ccc(C(=O)Nc3ccc(F)cc3F)cc2)nc1COc1ccccc1 -2.15%, COC(=O)c1c(NC(=O)CCCOc2ccccc2)sc2c1CCC(C)C2 (centres undefined) 2.67%, Cc1ccc(Cl)cc1NC(=O)C1CCCN(S(=O)(=O)c2c(C)noc2/C=C/N(C)C)C1 (centres undefined) -28.8%, Fc1ccc(C2=NC(c3cccc(C(F)(F)F)c3)=Nc3ccccc3N2)cc1 -24.3%, CCC(=O)N1CCc2cc(S(=O)(=O)CCC(=O)N(C)c3ccc(OC)cc3)ccc21 2.71%, Cc1cc(Nc2cccc(Cl)c2)nc2ccc(NC(=O)c3ccc(F)cc3Cl)cc12 -37.3%, O=C(Nc1ccccc1C(=O)OCc1cc(=O)n2ccsc2n1)c1cccc(F)c1 -34.1%, Cc1ccc2nc(/C(C#N)=C/c3ccc(-c4ccc(F)cc4F)o3)[nH]c2c1 -3.17%, CCOc1ccc(NC(=O)NCCCN2CCN(c3ccc(OC)cc3)CC2)cc1 -16%, O=C(c1ccc(CSc2nc3ccncc3n2Cc2ccccc2F)cc1)N1CCCCC1 14%, CCOc1ccccc1Nc1sc(C(=O)c2ccc(Cl)cc2)c(N)c1C#N -0.403%, COc1ccc2c(c1)C(=O)N(CCc1ccc(S(=O)(=O)NC(=O)NC3CCCCC3)cc1)C(=O)C2(C)C -10.4%, O=C(NCc1ccc(F)cc1)c1cccc(N2CCCS2(=O)=O)c1 -20%, Cc1ccc(-c2cc(C(=O)NCCc3ccccc3)c3ccccc3n2)cc1C 35.2%, Cc1ccccc1NC(=O)Cn1c(=O)n(Cc2ccco2)c(=O)c2cccnc21 -9.05%, CC(C)c1ccc(NC(=O)CNC(=O)Cn2ccc3ccccc3c2=O)cc1 -12.8%, CCc1ccc2c(c1)c(=O)c(C(=O)c1ccc(C)cc1)cn2CC(=O)Nc1ccc2c(c1)OCCO2 -19.1%, Cc1ccc(NC(=O)Cn2c(=O)nc(-c3ccccc3F)c3cc(Cl)ccc32)c(Br)c1 -39.2%, CCOC(=O)c1ccccc1NC(=O)CSc1ncc2c(n1)-c1ccccc1N(CC)S2(=O)=O -13.6%, NS(=O)(=O)Cc1noc2ccccc12 -2.56%, CCC(C)n1c(=N)c(S(=O)(=O)c2ccccc2)cc2c(=O)n3ccccc3nc21 (centres undefined) -12.2%, Cc1nn(C)c2c1c(-c1ccccc1)cc(=O)n2CC(=O)NC(C)(C)C -31.5%, COc1cc2nc(SCc3ccc(F)cc3)n3nc(CCn4c(C)nc5ccccc54)nc3c2cc1OC -5.81%, CCOc1ccc(S(=O)(=O)N(CC(=O)NCCSCc2ccccc2)c2ccccc2)cc1 -5.68%, CCOc1ccccc1NC(=O)N1CCN(Cc2cc(=O)n3nc(-c4ccc(C)cc4)sc3n2)CC1 -8.06%, CSc1cccc(NC(=O)c2ccc3c(c2)c(C)c(C)n3Cc2ccc(F)cc2)c1 -25.6%, COc1ccc(CCCc2nnc(SCC(=O)Nc3ccc(C)c(C)c3)o2)cc1 11.6% [at 11.5 µM, percent change from vehicle, -100% = no light], CCc1ccc(S(=O)(=O)c2cn(C)c3cc(N4CCN(CC)CC4)c(F)cc3c2=O)cc1 -10.1%, Cc1cc(C)c2c(CC(=O)Nc3nnc(CC(C)C)s3)coc2c1 -6.47%, CC(C)NS(=O)(=O)c1ccc(OCC(=O)N2CCN(c3ccccc3F)CC2)cc1 -20.2%, CN(C)CCN(Cc1ccc(Cl)cc1)c1ccccn1 -31.8%, O=C(c1ccc(CS(=O)c2ccccc2Cl)o1)N1CCN(c2ccccc2F)CC1 (centres undefined) -37.1%, Cc1ccc(CN2CCC(CNC(=O)Nc3c(C)cccc3C)C2)cc1 (centres undefined) -16.6%, COc1ccccc1-c1c(C)nn2c(C(F)(F)F)cc(-c3ccccc3)nc12 -8.67%
